Laboratory results from PMC4336329 (PLoS ONE, 2015).
Hit rate of the full screen: of about 310,000 compounds, about 14,000 (4.5%) showed an effect of 50% or more. The effect is printed as a negative number. This is one part of the list.

Target: human ether-à-go-go-related gene (hERG) potassium channel (human, UniProt Q12809)
Experiment: primary screen, population patch clamp on CHO cells stably expressing hERG
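Also: peak tail current of the secondary pulse compared with the same well before compound.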

human ether-à-go-go-related gene (hERG) potassium channel, sequence (Q12809 whole entry, looked up): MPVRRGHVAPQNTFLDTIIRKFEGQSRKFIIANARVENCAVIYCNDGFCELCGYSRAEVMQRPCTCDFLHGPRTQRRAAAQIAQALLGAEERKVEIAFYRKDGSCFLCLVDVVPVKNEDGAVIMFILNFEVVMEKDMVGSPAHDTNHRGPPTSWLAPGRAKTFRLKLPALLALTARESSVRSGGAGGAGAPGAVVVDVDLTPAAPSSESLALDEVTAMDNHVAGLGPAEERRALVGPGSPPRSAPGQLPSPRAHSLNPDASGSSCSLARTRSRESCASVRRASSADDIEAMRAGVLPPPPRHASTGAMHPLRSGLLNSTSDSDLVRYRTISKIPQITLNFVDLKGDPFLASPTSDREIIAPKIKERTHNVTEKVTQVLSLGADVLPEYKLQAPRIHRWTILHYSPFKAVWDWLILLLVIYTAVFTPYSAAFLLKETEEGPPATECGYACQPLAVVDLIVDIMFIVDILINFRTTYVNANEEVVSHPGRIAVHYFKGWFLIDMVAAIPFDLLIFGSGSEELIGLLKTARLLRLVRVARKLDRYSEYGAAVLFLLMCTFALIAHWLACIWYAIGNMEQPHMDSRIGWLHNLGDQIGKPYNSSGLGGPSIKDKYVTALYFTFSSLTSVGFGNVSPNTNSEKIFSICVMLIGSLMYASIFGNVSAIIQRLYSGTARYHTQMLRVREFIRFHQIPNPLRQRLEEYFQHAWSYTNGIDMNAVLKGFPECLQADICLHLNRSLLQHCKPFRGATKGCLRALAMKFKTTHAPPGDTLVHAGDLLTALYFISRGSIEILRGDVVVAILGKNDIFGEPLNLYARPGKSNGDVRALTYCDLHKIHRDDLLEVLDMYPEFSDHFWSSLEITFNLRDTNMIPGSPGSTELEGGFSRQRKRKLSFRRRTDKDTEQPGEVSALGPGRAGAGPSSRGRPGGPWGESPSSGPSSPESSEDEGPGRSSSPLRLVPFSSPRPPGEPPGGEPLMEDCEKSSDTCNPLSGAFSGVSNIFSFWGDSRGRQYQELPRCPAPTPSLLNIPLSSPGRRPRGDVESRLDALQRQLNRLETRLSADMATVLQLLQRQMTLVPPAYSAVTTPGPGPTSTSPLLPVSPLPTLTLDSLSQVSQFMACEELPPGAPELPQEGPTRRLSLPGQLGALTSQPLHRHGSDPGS

Question: How did the “hERG current change (%, negative = inhibition) at 10uM” value turn out when `Fc1ccc(-c2n[nH]c(=S)c3ccccc23)cc1` was run?
Answer: -2.8%

Question: `CCN(CC(=O)Nc1ccc2c(c1)OCCO2)C(=O)c1cccc(OCC(C)C)c1` was tested. Which “hERG current change (%, negative = inhibition) at 10uM” value did it give?
Answer: -15.7%

Question: With `Cc1ccc(NC(=O)Nc2cnccn2)cc1` as the compound, how does the “hERG current change (%, negative = inhibition) at 10uM” value read?
Answer: 5.11%

Question: Which “hERG current change (%, negative = inhibition) at 10uM” value does the source give for `CCc1ccc(NC(=O)CSc2ccc(-c3ccccn3)nn2)cc1` here?
Answer: 2.69%

Question: Which “hERG current change (%, negative = inhibition) at 10uM” value does the source give for `CCCOc1ccccc1C1CC(=O)Nc2cc3c(cc21)OCO3` (stereo not shown) here?
Answer: -3.8%

Question: Which “hERG current change (%, negative = inhibition) at 10uM” value does the source give for `O=C(Nc1ccc(NC(=O)c2cccs2)cc1)c1ccccc1` here?
Answer: 16.8%

Question: `O=C(C1CCCCN1S(=O)(=O)c1ccccc1[N+](=O)[O-])N1CCOCC1` (stereo not shown) was tested. Which “hERG current change (%, negative = inhibition) at 10uM” value did it give?
Answer: 7.87%

Question: Which “hERG current change (%, negative = inhibition) at 10uM” value does the source give for `Cc1[nH]c(C)c(S(=O)(=O)NCCc2ccccc2)c1C(=O)N1CCCC1` here?
Answer: 15.5%

Question: How did the “hERG current change (%, negative = inhibition) at 10uM” value turn out when `COc1ccc(C)cc1NC(=O)CN1CCN(c2ccccn2)CC1` was run?
Answer: -11.7%

Question: `CCN1CCN(C(=O)Cc2ccccc2OC)CC1` was tested. Which “hERG current change (%, negative = inhibition) at 10uM” value did it give?
Answer: 13.3%

Question: For `CCOC(=O)/C(C#N)=C1/C=CN(c2ccc(C)cc2)C=N1`, which “hERG current change (%, negative = inhibition) at 10uM” value is on record?
Answer: -1.21%

Question: For `COc1ccccc1N(CC(=O)NCC1CCCO1)C(=O)Cn1nnc(-c2cccs2)n1` (stereo not shown), which “hERG current change (%, negative = inhibition) at 10uM” value is on record?
Answer: 7.42%

Question: With `Cc1cccc(NC(=O)CNC(=O)Cc2ccc3c(c2)OCCO3)c1C` as the compound, how does the “hERG current change (%, negative = inhibition) at 10uM” value read?
Answer: 24.2%

Question: `O=C(CCN=C1NS(=O)(=O)c2ccccc21)OCc1cccc(Cl)c1` was tested. Which “hERG current change (%, negative = inhibition) at 10uM” value did it give?
Answer: -10.5%

Question: How did the “hERG current change (%, negative = inhibition) at 10uM” value turn out when `CCc1cc2c(=O)c(Oc3ccccc3)c(C)oc2cc1O` was run?
Answer: -22%

Question: How did the “hERG current change (%, negative = inhibition) at 10uM” value turn out when `COc1cc(OC)cc(C(=O)Nc2cccc3cccnc23)c1` was run?
Answer: 28.6%

Question: For `Cc1ccc(N(Cc2ccc(C(=O)Nc3c(C)n(C)n(-c4ccccc4)c3=O)cc2)S(C)(=O)=O)cc1C`, which “hERG current change (%, negative = inhibition) at 10uM” value is on record?
Answer: 13.8%

Question: Which “hERG current change (%, negative = inhibition) at 10uM” value does the source give for `COC(=O)c1cn(CCOc2ccccc2OC)c2ccccc12` here?
Answer: 0.372%

Question: With `CCc1ccc(C2CC(c3cccc(OC)c3)n3nc(N)nc3N2)cc1` (stereo not shown) as the compound, how does the “hERG current change (%, negative = inhibition) at 10uM” value read?
Answer: -2.68%

Question: How did the “hERG current change (%, negative = inhibition) at 10uM” value turn out when `COc1ccc(C(=O)Nc2ccc(Oc3ncnc4sc(-c5ccccc5)cc34)cc2)cc1OC` was run?
Answer: 28%

Question: With `O=C1CC(=O)N(c2ccc(Cl)cc2Cl)C(=O)N1` as the compound, how does the “hERG current change (%, negative = inhibition) at 10uM” value read?
Answer: 3.87%

Question: `COc1cccc(N(C(=O)Cn2nnc(-c3ccc(C)o3)n2)C(C(=O)NC2CCCC2)c2ccncc2)c1` (stereo not shown) was tested. Which “hERG current change (%, negative = inhibition) at 10uM” value did it give?
Answer: 17.2%

Question: Which “hERG current change (%, negative = inhibition) at 10uM” value does the source give for `CN(C)/C=C(\C=N\OCc1ccc(Cl)cc1Cl)C(=O)Nc1ccc(Cl)c(Cl)c1` here?
Answer: 12.4%

Question: With `COc1ccc(-c2cc(C(=O)NCC3CCCO3)on2)cc1OC` (stereo not shown) as the compound, how does the “hERG current change (%, negative = inhibition) at 10uM” value read?
Answer: 0.789%

Question: For `COc1ccc(Nc2nnc(SC(C(=O)Nc3cc(C)ccc3C)c3ccccc3)s2)cc1` (stereo not shown), which “hERG current change (%, negative = inhibition) at 10uM” value is on record?
Answer: 0.191%

Question: How did the “hERG current change (%, negative = inhibition) at 10uM” value turn out when `CC(=O)Nc1ccc(-c2csc(NC(=O)Cc3ccccc3F)n2)cc1` was run?
Answer: 10.1%

Question: `NS(=O)(=O)c1cccc(NC(=O)CCCC2CCCCC2)c1` was tested. Which “hERG current change (%, negative = inhibition) at 10uM” value did it give?
Answer: -45.3%

Question: How did the “hERG current change (%, negative = inhibition) at 10uM” value turn out when `COc1cccc(NC(=O)C2C3C=CC4(O3)C2C(=O)N(CCN2CCCCC2)C4C(=O)NC2CCCCC2C)c1` (stereo not shown) was run?
Answer: 18.6%

Question: Which “hERG current change (%, negative = inhibition) at 10uM” value does the source give for `COc1cc2nc(N(CCCN(C)C)C(=O)c3ccc(C(=O)c4ccccc4)cc3)sc2cc1OC.Cl` here?
Answer: -70.4%

Question: How did the “hERG current change (%, negative = inhibition) at 10uM” value turn out when `Cc1sc2nc(COC(=O)c3c(F)cccc3F)[nH]c(=O)c2c1C` was run?
Answer: 2.34%

Question: Which “hERG current change (%, negative = inhibition) at 10uM” value does the source give for `COc1ccc(CN2CCC(n3nccc3NC(=O)c3cccc(F)c3)CC2)cc1O` here?
Answer: -80.4%

Question: For `CC(C)CNc1cc(N2CCCC2)ccc1[N+](=O)[O-]`, which “hERG current change (%, negative = inhibition) at 10uM” value is on record?
Answer: 0.4%

Question: `COc1ccc(Cl)cc1NC(=O)CN1CCC(NC(=O)C2CC2)CC1` was tested. Which “hERG current change (%, negative = inhibition) at 10uM” value did it give?
Answer: -52%

Question: How did the “hERG current change (%, negative = inhibition) at 10uM” value turn out when `CC(=O)c1ccc(S(=O)(=O)Nc2ccc(-n3c(C)nc4ccccc4c3=O)cc2)cc1` was run?
Answer: -43.2%

Question: Which “hERG current change (%, negative = inhibition) at 10uM” value does the source give for `O=C(N/N=C/c1ccccc1)c1sccc1OCc1ccc(F)cc1` here?
Answer: 5.25%

Question: `COC(=O)c1sc(N2C(=O)C(O)=C(C(=O)c3ccc(C)o3)C2c2cccs2)nc1C` (stereo not shown) was tested. Which “hERG current change (%, negative = inhibition) at 10uM” value did it give?
Answer: 10%

Question: With `CCOc1ccc(S(=O)(=O)NC2CCCCCC2)cc1` as the compound, how does the “hERG current change (%, negative = inhibition) at 10uM” value read?
Answer: 24.9%

Question: For `CCC/C(O)=C1\C(=O)CC(c2ccccc2)CC1=NC(C)C(=O)O` (stereo not shown), which “hERG current change (%, negative = inhibition) at 10uM” value is on record?
Answer: 2.38%

Question: For `COc1cc2ccccc2cc1C(=O)OCC(=O)N(CC(C)C)c1c(N)n(Cc2ccccc2)c(=O)[nH]c1=O`, which “hERG current change (%, negative = inhibition) at 10uM” value is on record?
Answer: -9.13%

Question: How did the “hERG current change (%, negative = inhibition) at 10uM” value turn out when `CSC1=N/C(=C\c2ccc3c(c2)OCO3)C(=O)S1` was run?
Answer: 12.3%

Question: With `CC1CN(S(=O)(=O)c2ccc(C(=O)Nc3nc(-c4cc5ccccc5o4)cs3)cc2)CC(C)O1` (stereo not shown) as the compound, how does the “hERG current change (%, negative = inhibition) at 10uM” value read?
Answer: 18.6%

Question: With `COC(=O)C1=C(C)N(CCc2cc(OC)c(OC)c(OC)c2)C(=O)N[C@H]1c1ccc(Br)cc1` as the compound, how does the “hERG current change (%, negative = inhibition) at 10uM” value read?
Answer: -45.4%

Question: Which “hERG current change (%, negative = inhibition) at 10uM” value does the source give for `COc1ccc(N2C(=O)/C(=C/c3cccnc3)NC2=S)cc1` here?
Answer: 8.95%

Question: With `COc1cc(C(=O)NNC(=O)c2cccn2C)cc(OC)c1OC` as the compound, how does the “hERG current change (%, negative = inhibition) at 10uM” value read?
Answer: -13.3%

Question: With `CC(C)(NS(=O)(=O)OCC(Cl)(Cl)Cl)c1ccccc1` as the compound, how does the “hERG current change (%, negative = inhibition) at 10uM” value read?
Answer: -1.71%

Question: Which “hERG current change (%, negative = inhibition) at 10uM” value does the source give for `Cc1ccccc1OCCOC(=O)c1ccc(S(=O)(=O)N2CCCC2)cc1` here?
Answer: 3.69%

Question: For `COc1ccc(CN2CCC(=O)NC2=O)cc1`, which “hERG current change (%, negative = inhibition) at 10uM” value is on record?
Answer: 2.92%

Question: Which “hERG current change (%, negative = inhibition) at 10uM” value does the source give for `COc1cc(OC)c2c(C)cc(=O)oc2c1` here?
Answer: 15.4%

Question: With `CCOc1cc(NC(=S)NCCCOC)c(OCC)cc1NC(=O)c1cccs1` as the compound, how does the “hERG current change (%, negative = inhibition) at 10uM” value read?
Answer: 11.4%

Question: `O=S(=O)(NCc1ccco1)c1ccc(Cl)cc1Cl` was tested. Which “hERG current change (%, negative = inhibition) at 10uM” value did it give?
Answer: 6.29%

Question: For `Cc1ccc(C(=O)Nc2ccccc2N2CCCC2)cc1`, which “hERG current change (%, negative = inhibition) at 10uM” value is on record?
Answer: -3.97%

Question: With `CCOc1[nH]n(-c2ccc(Cl)cc2)c(=O)c1C=Nc1ccc(OC)cc1` as the compound, how does the “hERG current change (%, negative = inhibition) at 10uM” value read?
Answer: 14.8%

Question: Which “hERG current change (%, negative = inhibition) at 10uM” value does the source give for `COc1ccc(-n2c(C)cc(C=O)c2C)cc1Cl` here?
Answer: 8.27%

Question: With `Cc1cc(C)cc(Cn2ncc(Cl)c(Cl)c2=O)c1` as the compound, how does the “hERG current change (%, negative = inhibition) at 10uM” value read?
Answer: -9.97%

Question: `COc1ccc(CNC(=O)C2CCN(C(=O)c3ccc(-c4ccccc4)cc3)CC2)cc1` was tested. Which “hERG current change (%, negative = inhibition) at 10uM” value did it give?
Answer: -19.5%
